Hit rate of the full screen: of about 310,000 compounds, about 14,000 (4.5%) showed an effect of 50% or more. The effect is printed as a negative number. The list shows a part of the results.
The compounds below were run against human ether-à-go-go-related gene (hERG) potassium channel (human, UniProt Q12809) (assay: primary screen, population patch clamp on CHO cells stably expressing hERG).
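Further: peak tail current of the secondary pulse compared with the same well before compound.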

human ether-à-go-go-related gene (hERG) potassium channel, sequence (Q12809 whole entry, looked up): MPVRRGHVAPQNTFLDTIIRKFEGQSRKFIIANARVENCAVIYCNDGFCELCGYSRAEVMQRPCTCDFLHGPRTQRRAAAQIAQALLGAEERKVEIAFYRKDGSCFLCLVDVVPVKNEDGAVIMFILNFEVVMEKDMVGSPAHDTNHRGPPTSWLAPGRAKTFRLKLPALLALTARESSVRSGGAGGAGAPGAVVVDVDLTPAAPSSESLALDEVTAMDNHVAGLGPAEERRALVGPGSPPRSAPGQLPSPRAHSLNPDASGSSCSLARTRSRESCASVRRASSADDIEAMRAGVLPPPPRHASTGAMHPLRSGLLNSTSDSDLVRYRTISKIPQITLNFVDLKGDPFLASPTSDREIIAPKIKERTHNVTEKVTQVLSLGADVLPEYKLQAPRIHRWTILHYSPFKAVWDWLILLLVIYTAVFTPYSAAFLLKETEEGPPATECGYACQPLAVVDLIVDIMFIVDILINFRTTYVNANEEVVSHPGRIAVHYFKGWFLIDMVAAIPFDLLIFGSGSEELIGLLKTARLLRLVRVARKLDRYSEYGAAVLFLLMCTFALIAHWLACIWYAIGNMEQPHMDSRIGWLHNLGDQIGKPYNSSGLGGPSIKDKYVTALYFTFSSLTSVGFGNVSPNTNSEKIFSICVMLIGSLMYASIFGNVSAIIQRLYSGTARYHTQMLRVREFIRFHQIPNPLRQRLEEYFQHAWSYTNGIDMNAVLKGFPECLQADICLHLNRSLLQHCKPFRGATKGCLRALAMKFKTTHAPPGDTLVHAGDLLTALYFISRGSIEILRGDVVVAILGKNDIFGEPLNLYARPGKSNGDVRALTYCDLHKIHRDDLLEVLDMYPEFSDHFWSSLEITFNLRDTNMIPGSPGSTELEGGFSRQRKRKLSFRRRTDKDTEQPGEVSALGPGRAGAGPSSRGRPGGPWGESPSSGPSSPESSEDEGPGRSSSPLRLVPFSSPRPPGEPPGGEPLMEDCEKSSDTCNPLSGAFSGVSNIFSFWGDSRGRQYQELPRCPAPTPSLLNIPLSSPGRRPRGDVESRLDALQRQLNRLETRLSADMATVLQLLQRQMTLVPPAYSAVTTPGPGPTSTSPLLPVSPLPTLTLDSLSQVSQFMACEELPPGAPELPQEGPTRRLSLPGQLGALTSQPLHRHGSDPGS

Going from `O=C1CCC([N+](=O)[O-])C(c2cccc([N+](=O)[O-])c2)N1` (centres unmarked) to `COc1ccc([N+](=O)[O-])cc1NC(=O)COC(=O)/C=C/c1ccco1`, the “hERG current change (%, negative = inhibition) at 10uM” value falls from 8.88% to 1.54%.

Compared with `CCCc1cc(=O)[nH]c(SCC(=O)Nc2nonc2C)n1`, `Cc1nc(SCC(=O)Nc2ccnc3ccccc23)n[nH]1` is lower in “hERG current change (%, negative = inhibition) at 10uM” value: 4.4% for the first, -4.19% for the second.

Compared with `Cc1nc(-c2ccccc2)sc1C(=O)/C=C/c1ccc(Cl)cc1`, `O=C(Cc1ccc(Cl)cc1)N/N=C1\CCCc2ccccc21` is lower in “hERG current change (%, negative = inhibition) at 10uM” value: 15.8% for the first, -5.25% for the second.

First: Cc1nc2ccc(S(=O)(=O)NCC(=O)N3CCc4ccccc43)cc2s1
Second: NC1=NC(=O)CC(C(=O)Nc2cccc3ccccc23)S1 (centres unmarked)
The “hERG current change (%, negative = inhibition) at 10uM” value of the first is lower: -3.05% for the first, 11.6% for the second.

First: O=C(NCc1ccccc1CN1CCCC1)C1CCN(C(=O)c2ccc(F)cc2)CC1
Second: CC(C)NC(=O)CN1CCN(C(=O)c2ccc3oc(CCCc4ccccc4)nc3c2)CC1
The “hERG current change (%, negative = inhibition) at 10uM” value of the first is higher: -20.1% for the first, -40.7% for the second.

Going from `Cc1nnc(NC(=O)CSc2nnc(C(C)NC(=O)c3ccccc3F)n2C)s1` (centres unmarked) to `Cc1nnc(SCC(=O)Nc2nc(C(C)(C)C)cs2)s1`, the “hERG current change (%, negative = inhibition) at 10uM” value falls from 11.9% to -10.2%.

Compared with `Cc1cc(Cl)ccc1OCc1cn2cccnc2n1`, `CCOc1ccc(-c2nc(N)nc(C)c2-c2ccc(Cl)cc2)c(O)c1` is higher in “hERG current change (%, negative = inhibition) at 10uM” value: -17.5% for the first, -0.459% for the second.

Compared with `CCc1cc(C(=O)N2CCCC(C(=O)c3cccc4ccccc34)C2)n(C)n1` (centres unmarked), `CCOc1ccc(NC(=O)C2CCCN(S(=O)(=O)c3ccc4c(c3)CC(C)N4C(C)=O)C2)cc1` (centres unmarked) is higher in “hERG current change (%, negative = inhibition) at 10uM” value: -10.1% for the first, 12.9% for the second.

Going from `COc1ccc(NS(=O)(=O)c2cc(OC)ccc2OC)cc1` to `COc1ccc(-c2cc(-c3ccc(OC)cc3)[nH]n2)cc1`, the “hERG current change (%, negative = inhibition) at 10uM” value rises from 6.32% to 12.4%.

First: COc1ccc(-c2nc(NC(=O)Cn3c(=O)oc4ccccc43)sc2C)cc1
Second: COc1ccc(-c2nc(CS(=O)CC(=O)NCc3ccco3)c(C)o2)cc1 (centres unmarked)
The “hERG current change (%, negative = inhibition) at 10uM” value of the first is higher: 5.19% for the first, -7.82% for the second.

Compared with `COc1ccccc1C(=O)NCCNc1nc2cc(C)cc(C)c2cc1C#N`, `Cc1cc(OCC(=O)N[C@@H](Cc2ccccc2)C(=O)O)c2c3c(c(=O)oc2c1)CCC3` is lower in “hERG current change (%, negative = inhibition) at 10uM” value: 13.3% for the first, 3.29% for the second.

First: O=C(N/N=C/c1cccc(O)c1)c1ccccc1O
Second: O=C(CNc1ccc2ccccc2c1)N/N=C/c1ccccn1
The “hERG current change (%, negative = inhibition) at 10uM” value of the first is higher: 4.92% for the first, 4.04% for the second.

First: Oc1c(C=Nc2ccccc2)sc2ccccc12
Second: O=C1N/C(=C/c2ccc(Br)s2)C(=O)N1c1ccccc1
The “hERG current change (%, negative = inhibition) at 10uM” value of the first is lower: 7.23% for the first, 17.3% for the second.

Compared with `COc1ccc(NC(=O)CN(c2cccc(C(F)(F)F)c2)S(C)(=O)=O)cc1OC`, `CC1CC(C)CN(C(=O)c2cccc(S(=O)(=O)Nc3cc(C(F)(F)F)ccc3Cl)c2)C1` (centres unmarked) is lower in “hERG current change (%, negative = inhibition) at 10uM” value: 0.169% for the first, -11.4% for the second.

Compared with `COc1ccc(CNC(=O)CN2C(=O)NC3(CCCc4sccc43)C2=O)cc1OC` (centres unmarked), `CCOC(=O)CNC(=O)c1cn(CC)c(=O)c2cc(OC)c(OC)cc12` is higher in “hERG current change (%, negative = inhibition) at 10uM” value: -10.6% for the first, 15.2% for the second.

First: Cc1ccccc1NC(=O)/C(C#N)=C/c1ccccc1C(F)(F)F
Second: O=C(NCc1ccccc1Br)c1ccco1
The “hERG current change (%, negative = inhibition) at 10uM” value of the first is higher: 10.4% for the first, 8.96% for the second.

First: COc1cccc2c1-c1c(O)cccc1C2=O
Second: CCOc1nc(C)ccc1-c1noc(-c2ccccc2OC)n1
The “hERG current change (%, negative = inhibition) at 10uM” value of the first is higher: 16.2% for the first, 12.7% for the second.

First: Cc1ccc(CNC(=O)CCc2nnc3ccc(NCCCN4CCCC4=O)nn23)cc1
Second: CCc1ccc(NC(=O)C[n+]2cc(-c3ccc(C)cc3)n3c2CCC3)cc1.[Cl-]
The “hERG current change (%, negative = inhibition) at 10uM” value of the first is higher: 12.6% for the first, -63.1% for the second.

Going from `CCC1=C(C(=O)OC)C(c2cc(OC)ccc2OC)C(C#N)=C(N)O1` (centres unmarked) to `COc1ccc(CC(NC(C)=O)C(=O)NC2CCN(S(=O)(=O)c3ccc(NC(C)=O)cc3)CC2)cc1OC` (centres unmarked), the “hERG current change (%, negative = inhibition) at 10uM” value falls from 10.7% to 8.57%.

First: Cc1sc(NC(=O)c2ccco2)nc1-c1ccc2c(c1)CC(C)N2C(=O)C1CC1 (centres unmarked)
Second: Cc1cccc(NC(=O)COC(=O)c2ccc3c(=O)n4c(nc3c2)CCC4)c1
The “hERG current change (%, negative = inhibition) at 10uM” value of the first is higher: -1.59% for the first, -5.96% for the second.

First: CC(=O)c1ccc(-n2c(=O)[nH]c(=O)c3c(N)c(C(=O)c4ccc(Cl)cc4)sc32)cc1
Second: CCOC(=O)c1cccc2c(=O)c(C(=O)c3ccc(Cl)cc3)c(C(=O)OC)[nH]c12
The “hERG current change (%, negative = inhibition) at 10uM” value of the first is lower: -5.17% for the first, 5.07% for the second.

First: COC(=O)c1c(NC(=O)c2ccccc2)sc2c1CC(C)(C)NC2(C)C
Second: CCOC(=O)c1c(NC(=O)COc2ccccc2F)sc2c1CC(C)(C)NC2(C)C
The “hERG current change (%, negative = inhibition) at 10uM” value of the first is lower: -5% for the first, 5.17% for the second.

Going from `CN(CCc1ccccn1)S(=O)(=O)c1ccc(F)cc1` to `CC(=O)c1ccc(S(=O)(=O)NCCC(=O)OC(C)C(=O)Nc2ccc(F)cc2)cc1` (centres unmarked), the “hERG current change (%, negative = inhibition) at 10uM” value falls from 3.8% to -7.96%.

Going from `Cc1cc(C(=O)COC(=O)c2ccc[nH]c2=O)c(C)n1-c1ccccc1F` to `Cc1ccc(C(=O)NNC(=O)c2cc3ccccc3cc2O)cc1`, the “hERG current change (%, negative = inhibition) at 10uM” value rises from -2.38% to 12.7%.

Compared with `O=C(c1n[nH]c2c1CCC2)N1CCCC(Nc2cccc(F)c2)C1` (centres unmarked), `O=C(Nc1cccc(F)c1)c1c(F)c(F)c(F)c(F)c1F` is lower in “hERG current change (%, negative = inhibition) at 10uM” value: -9.01% for the first, -12.2% for the second.

Going from `CC1CCCN(c2ccc(N)cc2C(N)=O)C1` (centres unmarked) to `COc1ccc(S(=O)(=O)N2CCC(C(N)=O)CC2)c2ccccc12`, the “hERG current change (%, negative = inhibition) at 10uM” value falls from 4.44% to -5.13%.

First: O=C(NCC1CCCN1S(=O)(=O)c1cccs1)c1cccc(Cl)c1 (centres unmarked)
Second: CC1(c2ccc(Cl)cc2)NC(=O)N(CC(=O)N2CCN(S(=O)(=O)c3ccccc3)CC2)C1=O (centres unmarked)
The “hERG current change (%, negative = inhibition) at 10uM” value of the first is higher: -23.7% for the first, -50% for the second.

Going from `COc1cccc(C(=O)NCC(c2ccc3c(c2)OCO3)N2CCN(c3ccc(F)cc3)CC2)c1` (centres unmarked) to `CC(=O)c1ccc(S(=O)(=O)Nc2ccc(N3CCOCC3)cc2)cc1`, the “hERG current change (%, negative = inhibition) at 10uM” value rises from -22.5% to -8.77%.

Compared with `CC(=O)Nc1nc2cc3c(cc2s1)OCO3`, `CCOC(=O)c1cnc(-n2nc(C)cc2C)nc1N(CC)CC` is lower in “hERG current change (%, negative = inhibition) at 10uM” value: 14.2% for the first, -12.7% for the second.

First: COC(=O)C(Cc1ccccc1)NC(=O)COc1ccc(C(C)(C)C)cc1 (centres unmarked)
Second: CCC(C)(C)N(C(=O)CCC(=O)Nc1cc(C)on1)C(C(=O)NC(C)(C)C)c1ccc(OC)cc1 (centres unmarked)
The “hERG current change (%, negative = inhibition) at 10uM” value of the first is lower: -30.7% for the first, 7.87% for the second.

Compared with `CC(C)c1cccc(C(C)C)c1OC(=O)NC(=O)c1c(F)cccc1F`, `O=C(NNc1ccc(F)cc1)c1c(F)cccc1Cl` is lower in “hERG current change (%, negative = inhibition) at 10uM” value: 12.9% for the first, 9.01% for the second.

Compared with `Clc1ccc(/C=N/N2CCN(Cc3ccccc3Cl)CC2)cc1`, `Cc1ccc(N2CCN(/N=C/c3sccc3C)CC2)cc1` is lower in “hERG current change (%, negative = inhibition) at 10uM” value: 14.9% for the first, -7.68% for the second.

Going from `C=C(C)Cn1c(N2CCCC2)nc2c1c(=O)[nH]c(=O)n2C` to `Cc1cc(C)n2c3c(c(C#N)c2n1)CCCC3`, the “hERG current change (%, negative = inhibition) at 10uM” value falls from 7.26% to 6.93%.

Going from `Cc1cc(C)c(S(=O)(=O)c2ccccc2Cl)c(Cl)n1` to `CC(C)(C)n1ncc2c(=O)n(CC(=O)NCc3ccccc3Cl)cnc21`, the “hERG current change (%, negative = inhibition) at 10uM” value rises from 2.34% to 9.04%.

Compared with `O=C1CC(c2ccc(Br)cc2)NC(c2ccc(Br)cc2)C1c1ccccc1` (centres unmarked), `COc1ccc([C@@H]2[C@@H]3C(=O)N(C(C)(C)C)C(=O)[C@@H]3[C@]3(Cc4ccccc4)C(=O)N(c4ccccc4)C(=O)N23)cc1` is higher in “hERG current change (%, negative = inhibition) at 10uM” value: -5.43% for the first, 0.303% for the second.

First: Cc1ccc(/C=N/Nc2ccc(F)cc2)s1
Second: Cc1ccc2c(c1)C1CN(C)CCC1N2C(=S)Nc1ccc(OC(F)F)cc1 (centres unmarked)
The “hERG current change (%, negative = inhibition) at 10uM” value of the first is higher: 21.5% for the first, -55.1% for the second.

First: N#CCCN(CCN1CCCC1)S(=O)(=O)c1ccc(-c2ccc([N+](=O)[O-])cc2)cc1
Second: O=[N+]([O-])c1ccccc1S(=O)(=O)Nc1ccc(S(=O)(=O)N2CCOCC2)cc1
The “hERG current change (%, negative = inhibition) at 10uM” value of the first is lower: -79.1% for the first, 14.7% for the second.

Compared with `O=C(CCCc1ccccc1)N1CCN(C2CCCCC2)CC1`, `O=C(/C=C/c1ccccc1)N(c1ccccn1)C1CCCCC1` is higher in “hERG current change (%, negative = inhibition) at 10uM” value: -70.8% for the first, -19.3% for the second.

Compared with `Cc1cc(O)c(C=Nc2ccc(Cl)cn2)c(=O)o1`, `CCOc1ccc(S(=O)(=O)n2cc(F)c(=O)[nH]c2=O)cc1[N+](=O)[O-]` is higher in “hERG current change (%, negative = inhibition) at 10uM” value: 14.5% for the first, 17.4% for the second.

Going from `COc1ccc(S(=O)(=O)N2CCOC2CNC(=O)C(=O)NCCN2CCOCC2)cc1C` (centres unmarked) to `COc1ccc(CN(CC(=O)NCC2CCCO2)C(=O)CNS(=O)(=O)c2ccc(C)cc2)cc1` (centres unmarked), the “hERG current change (%, negative = inhibition) at 10uM” value falls from 15.8% to -2.26%.

Compared with `COc1ccccc1N1CCN(C(=O)C2CCCN(c3ncnc4c3nc3n4CCCCC3)C2)CC1` (centres unmarked), `CC(C)(C)c1ccc(/C=C2\Oc3c(ccc(O)c3CN3CCN(CCO)CC3)C2=O)cc1` is lower in “hERG current change (%, negative = inhibition) at 10uM” value: -12.5% for the first, -31% for the second.

Going from `Nc1c(C=C2C=CC(=O)C=C2)c(=O)nc2snc(SCc3ccccc3)n12` to `CN(C)c1cccc(C(=O)n2cc(C(=O)c3cc(F)ccc3O)cn2)c1`, the “hERG current change (%, negative = inhibition) at 10uM” value rises from 8.76% to 15.2%.

Compared with `COCCNc1oc(-c2ccc(C)cc2)nc1C#N`, `CCCCCCCC(=O)NNC(=O)c1ccc(F)cc1` is lower in “hERG current change (%, negative = inhibition) at 10uM” value: 8.26% for the first, -18.2% for the second.
